# This is one part of the list. Values were computed here from the reads of four pooled replicates and scatter widely.
# Molecular target: T1, Pho4 (S. cerevisiae) (UniProt P07270)
# T1 sequence: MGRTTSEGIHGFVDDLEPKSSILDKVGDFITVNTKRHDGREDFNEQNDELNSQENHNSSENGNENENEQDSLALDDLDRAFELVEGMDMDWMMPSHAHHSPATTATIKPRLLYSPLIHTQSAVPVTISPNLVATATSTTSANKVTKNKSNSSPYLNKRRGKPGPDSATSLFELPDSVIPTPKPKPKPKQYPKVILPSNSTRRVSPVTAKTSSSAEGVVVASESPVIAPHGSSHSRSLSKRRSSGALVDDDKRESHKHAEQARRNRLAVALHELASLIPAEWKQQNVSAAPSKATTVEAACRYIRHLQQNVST
# Assay: relative binding free energy (BET-seq); higher = weaker binding
# Settings: reference: library average
row,Sequence,relative binding free energy [kcal/mol]
1,AAAAGCACGTGTAGTA,0.04
2,ATCGTCACGTGGTGAT,-0.01
3,GGGCTCACGTGTGTGA,0.22
4,TCGGGCACGTGCAAGG,0.04
5,GGATACACGTGGGGGG,-0.06
6,TGCAACACGTGTGAGG,0.09
7,TGGTGCACGTGATGTT,0.11
8,TTTATCACGTGGGCAA,0.18
9,TACGTCACGTGGGTTT,-0.06
10,TGTTGCACGTGCAAGG,0.03
11,TTAAGCACGTGTAATG,-0.02
12,GGATTCACGTGAGGTT,0.49
13,ATATTCACGTGCGTTG,0.21
14,CGGGGCACGTGCGAAG,-0.1
15,TATGACACGTGTATGT,0.04
16,AGGCTCACGTGTTAGT,0.23
17,GAGGTCACGTGTCGTT,0.36
18,GTGGTCACGTGTTCGA,0.19
19,ATGCGCACGTGGTGTG,-0.23
20,CGGTACACGTGTAAGG,0.02
21,CGTTTCACGTGGGTGT,0.12

row,Sequence,relative binding free energy [kcal/mol]
1,GAAAGCACGTGGTTTA,-0.01
2,GGTGGCACGTGCAGGC,-0.08
3,TAGGGCACGTGACTTG,-0.08
4,CGTGACACGTGGTTTT,0.03
5,TTCTGCACGTGTTTAG,0.07
6,AGTGGCACGTGCGGAA,-0.2
7,TGAGTCACGTGTACAG,0.23
8,GATTTCACGTGTGTTA,0.14
9,TTATTCACGTGTCGTC,0.31
10,ATCGGCACGTGGGTCG,-0.23
11,AGAGGCACGTGGTATG,-0.22
12,TGTGGCACGTGTAGTG,-0.07
13,CTTTTCACGTGAAGGT,0.41
14,TGTTTCACGTGAGTCG,0.11
15,TGATTCACGTGAGAGG,0.55
16,TGCCGCACGTGTGGGA,-0.04
17,AGGGCCACGTGCGTGT,-0.2
18,ATGTGCACGTGTGCCG,-0.03
19,ATAGTCACGTGATTAT,0.15
20,TTCCGCACGTGAGGTT,0.08
21,TTAGACACGTGGATGG,0.03

row,Sequence,relative binding free energy [kcal/mol]
1,TAGTGCACGTGGTGCA,-0.25
2,AAAAGCACGTGATTAT,0.19
3,TATGGCACGTGCAGAG,-0.11
4,CGTCGCACGTGAGGGT,0.07
5,GGGTACACGTGAGAAT,0.29
6,TGTGCCACGTGACGTT,-0.01
7,GTAGTCACGTGTCGGG,0.32
8,TTGCTCACGTGGCGTT,0.14
9,TCTTTCACGTGTAAAG,0.4
10,GTGCTCACGTGGGAAG,0.19
11,AGTGTCACGTGGAAGG,0.08
12,TTGATCACGTGATGGT,0.34
13,GGACGCACGTGGGGTA,-0.35
14,AACTTCACGTGGGTTG,0.16
15,ATGTTCACGTGACTTG,0.23
16,GGGTTCACGTGGCGAG,0.24
17,GAGTACACGTGGAGAT,0.24
18,GTGGGCACGTGGTAAT,-0.08
19,CTCCGCACGTGTGGGG,-0.09
20,TGTATCACGTGTATCA,0.11
21,GATGGCACGTGGTGCA,-0.09

# From the BET-seq Pho4 binding data (Le et al. 2018)
